Some of the results follow.
Legend:
Assay in all cases: glycan array binding signal (z-score within array); higher = stronger binding
Settings in all cases: glycan notation: IUPAC condensed, linker removed
[1] = target: Neu5Ac(a2-6)Gal(b1-4)GlcNAc(b1-3)Gal(b1-4)GlcNAc(b1-3)GalNAc
Method in brief: (§1)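 From the Consortium for Functional Glycomics database, 3228 arrays were curated, keeping only those whose protein sequence was available. Binding is given as a within-array Z-score averaged across arrays sharing a protein sequence and across linkers. Negative Z-scores can be read as non-binding.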

[2] = target: Neu5Ac(a2-6)Gal(b1-4)GlcNAc(b1-3)Gal(b1-4)GlcNAc(b1-3)[Neu5Ac(a2-6)Gal(b1-4)GlcNAc(b1-3)Gal(b1-4)GlcNAc(b1-6)]GalNAc
Method in brief: as §1

[3] = target: Neu5Ac(a2-6)Gal(b1-4)GlcNAc(b1-3)Gal(b1-4)GlcNAc(b1-6)[Gal(b1-3)]GalNAc
Method in brief: as §1

[4] = target: Neu5Ac(a2-6)Gal(b1-4)GlcNAc(b1-3)Gal(b1-4)[Fuc(a1-3)]GlcNAc(b1-3)Gal(b1-4)[Fuc(a1-3)]GlcNAc
Method in brief: as §1

[5] = target: Neu5Ac(a2-6)Gal(b1-4)GlcNAc(b1-3)GalNAc
Method in brief: as §1

[6] = target: Neu5Ac(a2-6)Gal(b1-4)GlcNAc(b1-3)[Neu5Ac(a2-6)Gal(b1-4)GlcNAc(b1-6)]GalNAc
Method in brief: as §1

[7] = target: Neu5Ac(a2-6)Gal(b1-4)GlcNAc(b1-6)GalNAc
Method in brief: as §1

[8] = target: Neu5Ac(a2-6)Gal(b1-4)GlcNAc(b1-6)[Gal(b1-3)GlcNAc(b1-3)]Gal(b1-4)Glc
Method in brief: as §1

[9] = target: Neu5Ac(a2-6)Gal(b1-4)GlcNAc(b1-6)[Gal(b1-3)]GalNAc
Method in brief: as §1

[10] = target: Neu5Ac(a2-6)Gal(b1-4)GlcNAc6S
Method in brief: as §1

Neu5Ac(a2-6)GalNAc = target: Neu5Ac(a2-6)GalNAc
Method in brief: as §1

[11] = target: Neu5Ac(a2-6)GalNAc(b1-4)GlcNAc
Method in brief: as §1

[12] = target: Neu5Ac(a2-6)GalNAc(b1-4)GlcNAc6S
Method in brief: as §1

[13] = target: Neu5Ac(a2-6)GlcNAc(b1-4)GlcNAc
Method in brief: as §1

[14] = target: Neu5Ac(a2-6)GlcNAc(b1-4)GlcNAc(b1-4)GlcNAc
Method in brief: as §1

Neu5Ac(a2-8)Neu5Ac = target: Neu5Ac(a2-8)Neu5Ac
Method in brief: as §1

[15] = target: Neu5Ac(a2-8)Neu5Ac(a2-3)Gal(b1-3)GalNAc(b1-4)[Neu5Ac(a2-3)]Gal(b1-4)Glc
Method in brief: as §1

[16] = target: Neu5Ac(a2-8)Neu5Ac(a2-3)Gal(b1-3)GalNAc(b1-4)[Neu5Ac(a2-8)Neu5Ac(a2-3)]Gal(b1-4)Glc
Method in brief: as §1

[17] = target: Neu5Ac(a2-8)Neu5Ac(a2-3)Gal(b1-4)Glc
Method in brief: as §1

[18] = target: Neu5Ac(a2-8)Neu5Ac(a2-3)Gal(b1-4)GlcNAc
Method in brief: as §1

[19] = target: Neu5Ac(a2-8)Neu5Ac(a2-3)[Gal(b1-3)GalNAc(b1-4)]Gal(b1-4)Glc
Method in brief: as §1

[20] = target: Neu5Ac(a2-8)Neu5Ac(a2-3)[GalNAc(b1-4)]Gal(b1-4)Glc
Method in brief: as §1

[21] = target: Neu5Ac(a2-8)Neu5Ac(a2-8)Neu5Ac
Method in brief: as §1

[22] = target: Neu5Ac(a2-8)Neu5Ac(a2-8)Neu5Ac(a2-3)Gal(b1-4)Glc
Method in brief: as §1

[23] = target: Neu5Ac(a2-8)Neu5Ac(a2-8)Neu5Ac(a2-3)[Gal(b1-3)GalNAc(b1-4)]Gal(b1-4)Glc
Method in brief: as §1

[24] = target: Neu5Ac(a2-8)Neu5Ac(a2-8)Neu5Ac(a2-3)[GalNAc(b1-4)]Gal(b1-4)Glc
Method in brief: as §1

[25] = target: Neu5Ac(a2-8)Neu5Ac(a2-8)Neu5Ac(a2-8)Neu5Ac(a2-3)[GalNAc(b1-4)]Gal(b1-4)Glc
Method in brief: as §1

[26] = target: Neu5Ac(a2-8)Neu5Gc(a2-3)Gal(b1-4)GlcNAc
Method in brief: as §1

[27] = target: Neu5Ac(b2-6)Gal(b1-4)GlcNAc
Method in brief: as §1

Neu5Ac(b2-6)GalNAc = target: Neu5Ac(b2-6)GalNAc
Method in brief: as §1

[28] = target: Neu5Ac9Ac(a2-3)Gal(b1-4)GlcNAc
Method in brief: as §1

[29] = target: Neu5Ac9Ac(a2-6)Gal(b1-4)GlcNAc
Method in brief: as §1

[30] = target: Neu5Gc(a2-3)Gal(b1-3)GlcNAc
Method in brief: as §1

[31] = target: Neu5Gc(a2-3)Gal(b1-3)[Fuc(a1-4)]GlcNAc
Method in brief: as §1

Neu5Gc(a2-3)Gal(b1-4)Glc = target: Neu5Gc(a2-3)Gal(b1-4)Glc
Method in brief: as §1

[32] = target: Neu5Gc(a2-3)Gal(b1-4)GlcNAc
Method in brief: as §1

[33] = target: Neu5Gc(a2-3)Gal(b1-4)GlcNAc(b1-3)Gal(b1-4)GlcNAc(b1-2)Man(a1-3)[Neu5Gc(a2-3)Gal(b1-4)GlcNAc(b1-3)Gal(b1-4)GlcNAc(b1-2)Man(a1-6)]Man(b1-4)GlcNAc(b1-4)GlcNAc
Method in brief: as §1

[34] = target: Neu5Gc(a2-3)Gal(b1-4)[Fuc(a1-3)]GlcNAc
Method in brief: as §1

[35] = target: Neu5Gc(a2-6)Gal(b1-4)GlcNAc
Method in brief: as §1

Neu5Gc(a2-6)GalNAc = target: Neu5Gc(a2-6)GalNAc
Method in brief: as §1

[36] = target: Neu5Gc(a2-8)Neu5Ac(a2-3)Gal(b1-4)GlcNAc
Method in brief: as §1

[37] = target: Neu5Gc(a2-8)Neu5Gc(a2-3)Gal(b1-4)GlcNAc
Method in brief: as §1

[38] = target: Neu5Gc(a2-8)Neu5Gc(a2-3)Gal(b1-4)GlcNAc(b1-3)Gal(b1-4)GlcNAc
Method in brief: as §1

[39] = target: Neu5Gc(a2-8)Neu5Gc(a2-6)Gal(b1-4)GlcNAc
Method in brief: as §1

[40] = target: Neu5Gc(b2-6)Gal(b1-4)GlcNAc
Method in brief: as §1

B1: F17-L (Escherichia coli) (protein)
chain: GPDDYVPSQIAVNTSTLPGVVIGPADAHTYPRVIGELAGTSNQYVFNGGAIALMRGKFTPALPKIGSITYTFHQGNSRDSSDFDIYDIGVSGLGIIIGMAGYWPATPLVPINSSGIYIDPVGANTNPNTYNGATASFGARLFVAFVATGRLPNGYITIPTRQLGTILLEAKRTSLNNKGLTAPVMLNGGRIQVQSQTHHHHHH
glycan array binding signal (z-score) [1]: -0.132
glycan array binding signal (z-score) [2]: -0.014
glycan array binding signal (z-score) [3]: -0.112
glycan array binding signal (z-score) [4]: -0.091
glycan array binding signal (z-score) [5]: 0.078
glycan array binding signal (z-score) [6]: -0.047
glycan array binding signal (z-score) [7]: -0.152
glycan array binding signal (z-score) [8]: -0.155
glycan array binding signal (z-score) [9]: -0.149
glycan array binding signal (z-score) [10]: -0.097
glycan array binding signal (z-score) (Neu5Ac(a2-6)GalNAc): -0.135
glycan array binding signal (z-score) [11]: -0.15
glycan array binding signal (z-score) [12]: -0.14
glycan array binding signal (z-score) [13]: -0.12
glycan array binding signal (z-score) [14]: -0.088
glycan array binding signal (z-score) (Neu5Ac(a2-8)Neu5Ac): -0.101
glycan array binding signal (z-score) [15]: -0.141
glycan array binding signal (z-score) [16]: -0.106
glycan array binding signal (z-score) [17]: -0.156
glycan array binding signal (z-score) [18]: -0.144
glycan array binding signal (z-score) [19]: -0.045
glycan array binding signal (z-score) [20]: -0.122
glycan array binding signal (z-score) [21]: -0.045
glycan array binding signal (z-score) [22]: -0.056
glycan array binding signal (z-score) [23]: -0.129
glycan array binding signal (z-score) [24]: -0.149
glycan array binding signal (z-score) [25]: -0.113
glycan array binding signal (z-score) [26]: -0.192
glycan array binding signal (z-score) [27]: -0.112
glycan array binding signal (z-score) (Neu5Ac(b2-6)GalNAc): -0.061
glycan array binding signal (z-score) [28]: -0.143
glycan array binding signal (z-score) [29]: -0.133
glycan array binding signal (z-score) [30]: -0.015
glycan array binding signal (z-score) [31]: -0.112
glycan array binding signal (z-score) (Neu5Gc(a2-3)Gal(b1-4)Glc): -0.186
glycan array binding signal (z-score) [32]: -0.049
glycan array binding signal (z-score) [33]: -0.008
glycan array binding signal (z-score) [34]: -0.119
glycan array binding signal (z-score) [35]: -0.145
glycan array binding signal (z-score) (Neu5Gc(a2-6)GalNAc): -0.133
glycan array binding signal (z-score) [36]: -0.117
glycan array binding signal (z-score) [37]: -0.177
glycan array binding signal (z-score) [38]: -0.129
glycan array binding signal (z-score) [39]: -0.122
glycan array binding signal (z-score) [40]: -0.15

Source: the supplement of paper PMC8728848
